Measured values published in the supplement of paper PMC6089552.
Where “and” joins values, the source holds several entries; their conditions need not be identical. Equal values may be shown once. Among all 3,200 compounds or so, about 300 (9.4%) showed activity. Only a part is listed here, and it is no random draw.

Tested on: A673/TR/shEF
Test: cell viability (LOESS-normalised, relative to median of negative controls) (log2 ratio); higher = more viable cells (less compound effect), active = hit call of the paper (over 3 MAD below the median)
Conditions: treatment time: 72 h
Summary of the method: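 Doxycycline, present or absent from 24 h before compounds, was used to induce EWS-FLI1 shRNA knockdown in A673/TR/shEF Ewing sarcoma cells at 1,500 per well in 384-well plates. Cells then received library compounds at two or more concentrations, or DMSO controls, for three days. Viability was measured by CellTiter-Glo luminescence on an Envision reader, and per-plate LOESS correction, division by the negative-control median and log2 transformation followed.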

[1] = 8.3 µM, library screen: screen3, EWS-FLI1 expression: high (no doxycycline)
[2] = 25 µM, library screen: screen3, EWS-FLI1 expression: high (no doxycycline)
[3] = 25 µM, library screen: screen3, EWS-FLI1 expression: low (doxycycline-induced shRNA knockdown)
[4] = 0.25 µM, library screen: screen1, EWS-FLI1 expression: high (no doxycycline)
[5] = 0.25 µM, library screen: screen1, EWS-FLI1 expression: low (doxycycline-induced shRNA knockdown)
[6] = 2.5 µM, library screen: screen1, EWS-FLI1 expression: high (no doxycycline)
[7] = 2.5 µM, library screen: screen1, EWS-FLI1 expression: low (doxycycline-induced shRNA knockdown)
[8] = 0.103 µM, library screen: screen3, EWS-FLI1 expression: high (no doxycycline)
[9] = 0.103 µM, library screen: screen3, EWS-FLI1 expression: low (doxycycline-induced shRNA knockdown)
[10] = 0.308 µM, library screen: screen3, EWS-FLI1 expression: high (no doxycycline)
[11] = 0.308 µM, library screen: screen3, EWS-FLI1 expression: low (doxycycline-induced shRNA knockdown)
[12] = 0.926 µM, library screen: screen3, EWS-FLI1 expression: high (no doxycycline)
[13] = 0.926 µM, library screen: screen3, EWS-FLI1 expression: low (doxycycline-induced shRNA knockdown)
[14] = 2.8 µM, library screen: screen3, EWS-FLI1 expression: high (no doxycycline)
[15] = 2.8 µM, library screen: screen3, EWS-FLI1 expression: low (doxycycline-induced shRNA knockdown)
[16] = 8.3 µM, library screen: screen3, EWS-FLI1 expression: low (doxycycline-induced shRNA knockdown)
[17] = 25 µM, library screen: screen1, EWS-FLI1 expression: high (no doxycycline)
[18] = 0.25 µM, library screen: screen2, EWS-FLI1 expression: high (no doxycycline)
[19] = 0.25 µM, library screen: screen2, EWS-FLI1 expression: low (doxycycline-induced shRNA knockdown)
[20] = 2.5 µM, library screen: screen2, EWS-FLI1 expression: high (no doxycycline)
[21] = 2.5 µM, library screen: screen2, EWS-FLI1 expression: low (doxycycline-induced shRNA knockdown)

Measured: cell viability (log2)

CC1(COc2ccc3c(c2)ncn3-c2ccc3cccc(N4CCC(N)CC4)c3n2)COC1
active: [1] -0.22 | [2] -1.66 | [3] -0.632

C[C@]12CC[C@H]3C(=CCc4cc(O)ccc43)[C@@H]1CCC2=O
inactive: [4] -0.0145 | [5] 0.064 | [6] 0.0236 | [7] 0.138

O=C(NC1CCOCC1)c1ccc(-c2cc(-c3cn[nH]c3-c3ccccn3)ccn2)cc1
inactive: [8] 0.0414 | [9] -0.0267 | [10] 0.00678 | [11] 0.0198 | [12] -0.00971 | [13] 0.0278 | [14] 0.0251 | [15] 0.0026 | [1] 0.0359 | [16] 0.0142 | [2] -0.00807 | [3] 0.103

N=C(N)N
inactive: [4] 0.0673 | [5] 0.121 | [6] 0.0922 | [7] 0.00435

NC(N)=NCCNS(=O)(=O)c1cccc2cnccc12
active: [6] -0.325 | [17] -0.105

CNC(=O)[C@H]1O[C@@H](n2cnc3c(NCc4cccc(I)c4)ncnc32)[C@H](O)[C@@H]1O
inactive: [18] 0.0881 | [19] 0.143 | [20] 0.186 | [21] 0.124

Cc1c(C(N)=O)cc([N+](=O)[O-])cc1[N+](=O)[O-]
inactive: 0.025 µM, library screen: screen2, EWS-FLI1 expression: high (no doxycycline) 0.00602 | 0.025 µM, library screen: screen2, EWS-FLI1 expression: low (doxycycline-induced shRNA knockdown) 0.102 | [4] -0.0201 | [5] 0.0034 | [18] 0.0677 | [19] 0.0234 | [6] 0.0318 | [7] 0.0671 | [20] 0.116 | [21] 0.0743 | 25 µM, library screen: screen2, EWS-FLI1 expression: high (no doxycycline) 0.174 | 25 µM, library screen: screen2, EWS-FLI1 expression: low (doxycycline-induced shRNA knockdown) 0.0849

COc1ccc(C2C(=O)c3ccccc3C2=O)cc1
inactive: [4] 0.0954 | [5] -0.0583 | [6] 0.177 | [7] -0.135

Cc1cccc(C)c1NC(=O)C1CCCCN1C (configuration not stated)
inactive: [4] 0.138 | [5] 0.0396 | [6] 0.1 | [7] 0.0981

CCC(=O)OC1[C@@H]2CC3=C4CC(=O)O[C@@H](c5ccoc5)[C@]4(C)CCC3[C@@](C)(C2=O)[C@@H](CC(=O)OC)C1(C)C (some centres not stated)
inactive: [4] 0.0873 | [5] -0.00184 | [6] 0.0649 | [7] 0.122

C=C/C(C)=C\C[C@@H]1[C@@]2(C)CCCC(C)(C)[C@@H]2CC[C@@]1(C)O
inactive: [4] 0.0522 | [5] 0.0309 | [6] 0.126 | [7] 0.0611

COC(=O)C[C@H]1C(C)(C)C(=O)[C@@H]2CC3=C(CC[C@]4(C)C3=CC(=O)O[C@H]4c3ccoc3)[C@@]1(C)C2=O
inactive: [4] 0.0103 | [5] 0.0637 | [6] 0.0609 | [7] 0.0818

O=C(Nc1ccccc1)c1ccccc1O
inactive: [4] 0.0823 | [5] 0.0564 | [6] 0.028 | [7] 0.0434

CS(=O)(=O)c1ccc(C2=C(c3ccccc3)C(=O)OC2)cc1
inactive: [4] 0.0474 | [5] -0.00424 | [6] 0.131 | [7] -0.0334

CCC/C=C1\OC(=O)C2=C1CCC=C2
inactive: [4] 0.162 | [5] 0.149 | [6] 0.218 | [7] 0.211

Cn1c(=O)c2[nH]cnc2n(C)c1=O
inactive: [8] 0.139 | [9] 0.0982 | [4] 0.0899 | [5] 0.0721 | [18] 0.105 and -0.0181 | [19] 0.0369 and 0.0406 | [10] 0.11 | [11] 0.14 | [12] 0.146 | [13] 0.0819 | [6] 0.127 | [7] 0.0623 | [20] 0.259 and 0.0738 | [21] 0.0969 and 0.00951 | [14] 0.155 | [15] 0.129 | [1] 0.11 | [16] 0.0762 | [2] 0.117 | [3] 0.0984

NC(N)=NCCC[C@H](N[C@H](CCC(=O)O)C(=O)O)C(=O)O
inactive: [4] 0.0848 | [5] 0.0238 | [6] 0.123 | [7] 0.0291

Cc1ccnc2c1NC(=O)c1cccnc1N2C1CC1
inactive: [8] 0.0685 | [9] 0.0211 | [10] 0.0056 | [11] 0.117 | [12] 0.0577 | [13] 0.0639 | [14] 0.00114 | [15] 0.0574 | [1] 0.0246 | [16] 0.0388 | [2] 0.0765 | [3] 0.0526

CN(C)CCC=C1c2ccccc2CCc2ccccc21
active: [18] -0.148
inactive: [4] 0.0816 | [5] 0.086 | [19] 0.138 | [6] 0.144 | [7] 0.0763 | [20] 0.0454 | [21] 0.0908

Cc1[nH]c(=O)c(C#N)cc1-c1ccncc1
inactive: [8] 0.0326 | [9] 0.119 | [18] 0.0624 | [19] 0.0852 | [10] 0.14 | [11] 0.0767 | [12] 0.132 | [13] 0.0633 | [20] 0.155 | [21] 0.096 | [14] 0.139 | [15] 0.0633 | [1] 0.128 | [16] 0.0675 | [2] 0.148 | [3] 0.0407

CC(C)[C@H](CO)Nc1nc(Nc2cccc(Cl)c2)c2ncn(C(C)C)c2n1
inactive: [18] 0.136 | [19] 0.0723 | [20] 0.0529 | [21] 0.0514

NC(=O)c1ncn([C@@H]2O[C@H](CO)[C@@H](O)[C@H]2O)n1
inactive: [8] 0.0479 | [9] -0.00301 | [4] 0.0242 | [5] -0.0375 | [18] 0.0942 | [19] 0.138 | [10] 0.00539 | [11] 0.013 | [12] 0.012 | [13] 0.0638 | [6] 0.0898 | [7] -0.0568 | [20] 0.148 | [21] 0.053 | [14] -0.0142 | [15] -0.0276 | [1] 0.0371 | [16] 0.0291 | [2] 0.13 | [3] 0.0392

CCC(CCC(C)C1CCC2C3CCC4CC(O)CCC4(C)C3CCC12C)C(C)C (configuration not stated)
inactive: [4] 0.125 | [5] 0.0954 | [6] 0.131 | [7] 0.00436

CCOC(=O)[C@H](CCc1ccccc1)N[C@@H](C)C(=O)N1[C@H](C(=O)O)C[C@@H]2CCC[C@@H]21
inactive: [8] 0.119 | [9] 0.0378 | [10] 0.0824 | [11] 0.0741 | [12] 0.124 | [13] 0.0619 | [14] 0.108 | [15] 0.1 | [1] 0.105 | [16] 0.0239 | [2] 0.0963 | [3] 0.1

CCOc1ccc2c(c1)C(C)=CC(C)(C)N2
inactive: [4] 0.0986 | [5] 0.15 | [6] 0.163 | [7] 0.295

C#CCCCCCCCCCCCC(O)CC(O)CO.C=CCCCCCCCCCCCC(O)CC(O)CO (configuration not stated)
inactive: [4] -0.0366 | [5] 0.0109 | [6] 0.0828 | [7] -0.0815

CCCCCCCCCCCCCCCC(=O)O[C@H](CC(=O)[O-])C[N+](C)(C)C
active: [17] -0.454 | 25 µM, library screen: screen1, EWS-FLI1 expression: low (doxycycline-induced shRNA knockdown) -0.672

Cn1c(=O)c2[nH]c(C3CCCC3)nc2n(C)c1=O
inactive: [4] 0.052 | [5] 0.108 | [18] 0.109 | [19] 0.0676 | [6] 0.0537 | [7] 0.132 | [20] 0.149 | [21] 0.131

CC(C)COCC(CN(Cc1ccccc1)c1ccccc1)N1CCCC1 (configuration not stated)
inactive: [18] 0.21 | [19] 0.11 | [20] 0.0761 | [21] 0.0529

Clc1ccc(CN2CCN(Cc3c[nH]c4ccccc34)CC2)cc1
inactive: [4] 0.142 | [5] 0.175 | [6] 0.152 | [7] 0.116

COC1=CC(=O)OC(CCc2ccc(OC)c(OC)c2)C1 (configuration not stated)
inactive: [4] 0.144 | [5] -0.00163 | [6] 0.181 | [7] 0.0406

COc1ccc(C2COc3c(ccc(O)c3OC)C2)c(OC)c1O (configuration not stated)
inactive: [4] 0.108 | [5] 0.0205 | [6] 0.0667 | [7] -0.00772

CN[C@H](CC(C)C)C(=O)N[C@H]1C(=O)N[C@@H](CC(N)=O)C(=O)N[C@H]2C(=O)N[C@H]3C(=O)N[C@H](C(=O)N[C@H](C(=O)O)c4cc(O)cc(O)c4-c4cc3ccc4O)[C@H](O)c3ccc(c(Cl)c3)Oc3cc2cc(c3O[C@@H]2O[C@H](CO)[C@@H](O)[C@H](O)[C@H]2O[C@H]2C[C@](C)(N)[C@H](O)[C@H](C)O2)Oc2ccc(cc2Cl)[C@H]1O
inactive: [4] 0.0548 | [5] 0.0418 | [18] 0.165 | [19] 0.049 | [6] 0.0898 | [7] 0.0418 | [20] 0.202 | [21] 0.119

CNS(=O)(=O)Cc1ccc2[nH]cc(CCN(C)C)c2c1
inactive: [8] 0.0269 | [9] 0.00863 | [10] -0.0124 | [11] 0.0116 | [12] 0.0054 | [13] 0.0629 | [14] -0.00592 | [15] 0.0368 | [1] -0.0199 | [16] 0.0603 | [2] 0.00415 | [3] 0.0258
